Reference: PubChem BioAssay AID1794842 (National Center for Advancing Translational Sciences (NCATS), 2023)
In all, about 2,800 compounds went through this assay and fewer than 10 were called active. Calls come from the whole dose curve; as a rule, active = well fitted curve in the direction sought with a large enough effect; inconclusive = small, poorly fitted or top-dose-only effect, or another doubt; inactive = no such curve, though single readings can be large or run the other way. Some of the results follow.

molecular target: Metallo-beta-lactamase type 2 (Klebsiella pneumoniae) (UniProt C7C422); experiment: qHTS to identify inhibitors of the New Delhi Metallo-beta-lactamase (NDM): Meropenem screen against the machine-based learning selections.; note: % of control where 0% means no effect; conditions: Purified NDM-1, meropenem hydrolysis, absorbance 300 nm; at 38.4 µM (top of the series) unless noted
In short: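 Hydrolysis by 2 nM NDM-1 was followed by absorbance after >30 min compound preincubation in HEPES pH 7.0 buffer with 1 uM Zn2SO4. For nitrocefin (16.7 uM, 15 min, 485 nm) and meropenem (50 uM, 30 min, 300 nm), each substrate ran on separate plates.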

Chain of UniProt C7C422 (C7C422 whole entry, looked up): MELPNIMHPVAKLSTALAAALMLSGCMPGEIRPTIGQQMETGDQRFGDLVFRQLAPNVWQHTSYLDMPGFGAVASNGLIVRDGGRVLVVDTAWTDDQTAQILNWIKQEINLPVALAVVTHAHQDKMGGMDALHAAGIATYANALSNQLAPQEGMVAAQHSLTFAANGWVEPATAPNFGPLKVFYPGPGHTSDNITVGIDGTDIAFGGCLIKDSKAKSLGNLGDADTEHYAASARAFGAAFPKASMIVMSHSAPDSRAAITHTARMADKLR

Row | Structure (SMILES) | activity change, negative = inhibition
1 | CC(C)NC(=O)CCc1cc2n(n1)CCN(Cc1cc(=O)[nH]c(=O)[nH]1)C2 | inactive: 45.7%
2 | CCC(=O)N(C1CCOCC1)C1CCN(S(=O)(=O)c2ccc(C)cc2C)CC1 | inactive: 0.609%
3 | CC[C@H]1CN(C(=O)C(C)(C)C)CC[C@H]1CC(=O)NCc1cccnc1 | inactive: -1.05% [at 57.5 µM]
4 | Fc1ccc(CN2CC[C@H](c3nc4cc(Cl)ccc4o3)C2)cc1F | inactive: -2.33% [at 57.5 µM]
5 | O=C(Nc1cccs1)O[C@H]1COCCN(c2nc3ccccc3o2)C1 | inactive: 1.17% [at 57.5 µM]
6 | CCN(Cc1nc(C)no1)C(=O)c1cc(COc2ccccc2F)[nH]n1 | inactive: -0.0289%
7 | Cc1noc(C)c1CCC(=O)N1CCN(Cc2ccccc2)CC(O)C1 (stereo not given) | inactive: 3.03%
8 | COCCNS(=O)(=O)c1cc(C(=O)O)cc(-c2ccc(OC)c(F)c2)c1 | inactive: 7.31%
9 | COc1ccc(Cl)cc1-c1ccc2c(c1)C(=O)N1CCN(C(=O)c3ccc(N(C)C)cc3)C[C@@H]1C(=O)N2 | inactive: 2.11%
10 | CN(Cc1ccccc1)Cc1cc(CC2(NCc3cccs3)COC2)no1 | inactive: 0.865% [at 57.5 µM]
11 | CC1CCC(NC(=O)C2CCN(C(=O)c3ncn4c3COC(c3ccc(Cl)cc3)C4)CC2)CC1 (stereo not given) | inactive: 1.45%
12 | COCCN1CCCC2(CCN(C(=O)c3ccccc3)C2)C1 (stereo not given) | inactive: 1.01%
13 | Cc1nn(CCC#N)c(C)c1[C@@H]1C=C[C@@H](NC(=O)Nc2ccc(Cl)cc2)C1 | inactive: 0.866% [at 57.5 µM]
14 | CN1CCN(c2ccc(C(=O)N[C@H](c3ccccn3)C3CC(O)C3)cc2)CC1 (stereo not given in full) | inactive: 4.37%
15 | CCO[C@H]1CN(C(=O)c2cccnc2SCCc2ccccc2)C[C@@H]1O | inactive: 2.44%
16 | CCCNC(=O)NC[C@H]1O[C@@H]2C[C@@H](CC(=O)N3CCC(F)(F)C3)O[C@@H]2[C@@H]1O | inactive: -1.26% [at 57.5 µM]
17 | Clc1ccc(Cn2ccnc2-c2cc3n(n2)CCCNC3)cc1Cl | inactive: 42.3%
18 | O=C(Nc1cccc(-c2nnc3n2CCCC3)c1)c1ccc[nH]c1=O | inactive: -0.28%
19 | COc1ccc(NC(=O)c2ccnc(-c3nnc4ccc(Nc5ccccc5)nn34)c2)cn1 | inactive: 10.9% [at 57.5 µM]
20 | Cc1ccccc1-c1nccn2c(C3CN(Cc4ccc(O)cc4)C3)ncc12 | inactive: -0.872% [at 57.5 µM]
21 | CC(C)NC(=O)N1CCOc2ccc(CCC(N)=O)cc2C1 | inactive: -1.46%
22 | Cc1ccc(S(=O)(=O)Nc2ccc(C)n(CC(=O)NC(C)c3ccccc3)c2=O)cc1 (stereo not given) | inactive: 39.1%
23 | O=C(O)c1cc(-c2ccc3cc[nH]c3c2)cc(S(=O)(=O)N2CCSCC2)c1 | inactive: 21.7%
24 | O=C(NC[C@H]1O[C@@H](CO)[C@@H](O)[C@H]1N1CCN(c2cccc(C(F)(F)F)c2)CC1)Nc1ccc(F)cc1F | inactive: 61.8%
25 | CN(C)c1cccc(-c2cnc3[nH]cc(CC(=O)NCc4cccnc4)c3c2)c1 | inactive: 10.2% [at 57.5 µM]

Row | Structure (SMILES) | activity change, negative = inhibition
26 | c1ccc(CNc2cc3c(cn2)CN(Cc2cccnc2)CCN3)cc1 | inactive: -1.61% [at 57.5 µM]
27 | CC(C)C[C@@H]1N[C@H](C(=O)N(C)CCC#N)Cc2c[nH]c3cccc1c23 | inactive: 3.98% [at 57.5 µM]
28 | O=C(NCc1nnnn1-c1ccccc1)C1NCCc2[nH]cnc21 (stereo not given) | inactive: 28.7%
29 | O=C(c1cccc(F)c1)N1CCCC2(C1)NC(=O)N(Cc1ccc(Cl)cc1)C2=O (stereo not given) | inactive: 0.583%
30 | COCc1ccc(C(=O)N2CC[C@](C)(O)[C@H](C)C2)s1 | inactive: -0.373%
31 | CCS(=O)(=O)N1CCOC[C@H](Oc2ccc(C(F)(F)F)cn2)C1 | inactive: 0.519% [at 57.5 µM]
32 | Cc1ccnn1CCC(=O)Nc1nn(C)c2cccc(N3CCOCC3)c12 | inactive: 6.17%
33 | CC[C@H]1CN(C(=O)NC2CCCCC2)CC[C@H]1CC(=O)Nc1ccccc1 | inactive: -2.52% [at 57.5 µM]
34 | c1ccc(OCCNc2nc(-c3cccnc3)nc3c2CCNCC3)cc1 | inactive: -2.67%
35 | CCN(Cc1ccc(C)o1)C(=O)c1ccc2nc(-c3ccc(F)cc3)cn2c1 | inactive: 0.14%
36 | CC(C)C[C@@H]1N[C@H](C(=O)NCCOc2ccccc2)Cc2c[nH]c3cccc1c23 | inactive: 6.71% [at 57.5 µM]
37 | CC(C)(C)c1ccc(C(=O)Nc2ccc(C(O)[C@H]3COCC(=O)N3)cc2)cc1 (stereo not given in full) | inactive: -0.0206% [at 57.5 µM]
38 | OC(c1ccccc1)c1nc(Nc2ccc(C(F)(F)F)cc2)n[nH]1 (stereo not given) | inactive: 2.15% [at 57.5 µM]
39 | CCNC(=O)N[C@H]1[C@H](O)[C@@H](N(C)CCN(C)C)[C@@H]2OC[C@H]1O2 | inactive: 7.92% [at 57.5 µM]
40 | COC(=O)N1CCCCC(NC(=O)CCCc2nc(-c3ccccc3C)no2)C1 (stereo not given) | inactive: 0.122%
41 | CCC(C)NC(=O)CC1Sc2ncccc2N(C)C1=O (stereo not given) | inactive: 4.3%
42 | O=C(Nc1ccc(-c2nnc3n2CCCC3)cc1)C1CC1 | inactive: -0.0277%
43 | COc1ccccc1C(=O)Nc1ccnn1C1CCN(C(=O)[C@@H](N)CO)CC1 | inactive: 53.7%
44 | COC(=O)c1[nH]nc2c1C(c1ccc(OC)c(OC)c1Cl)CC(=O)N2 (stereo not given) | inactive: -0.0233%
45 | NC(=O)[C@H](Cc1cccs1)NC(=O)C1=C[C@@H](NC(=O)c2ccc(F)c(Cl)c2)[C@@H](O)[C@H](O)C1 | inactive: 0.292%
46 | N#Cc1cccc(-c2ccnc(N[C@H]3CO[C@H]4[C@@H]3OC[C@@H]4NC(=O)c3ccc(C(F)(F)F)cc3)n2)c1 | inactive: -0.85%
47 | Clc1cccnc1-c1cc(NCc2ccccn2)nc2[nH]ccc12 | inactive: -1.51%
48 | O=C(O)C[C@@H]1CCN(C(=O)c2ccco2)C[C@@H]1CCN1CCOCC1 | inactive: 23.8% [at 57.5 µM]
49 | COc1ccc(CN2C(=O)CO[C@H](c3ccc(NC(=O)c4ccccc4OC)cc3)[C@H]2CO)cc1 | inactive: 2.01%
50 | CCS(=O)(=O)c1ccc2oc([C@H]3CCN(Cc4c[nH]c5ccccc45)C3)nc2c1 | inactive: 3.33% [at 57.5 µM]
